The source of these data is paper PMC4336329 (PLoS ONE, 2015).

Hit rate of the full screen: of about 310,000 compounds, about 14,000 (4.5%) showed an effect of 50% or more. The effect is printed as a negative number. The list shows a part of the results.
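Further: peak tail current of the secondary pulse compared with the same well before compound.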

Sequence of human ether-à-go-go-related gene (hERG) potassium channel (Q12809 whole entry, looked up): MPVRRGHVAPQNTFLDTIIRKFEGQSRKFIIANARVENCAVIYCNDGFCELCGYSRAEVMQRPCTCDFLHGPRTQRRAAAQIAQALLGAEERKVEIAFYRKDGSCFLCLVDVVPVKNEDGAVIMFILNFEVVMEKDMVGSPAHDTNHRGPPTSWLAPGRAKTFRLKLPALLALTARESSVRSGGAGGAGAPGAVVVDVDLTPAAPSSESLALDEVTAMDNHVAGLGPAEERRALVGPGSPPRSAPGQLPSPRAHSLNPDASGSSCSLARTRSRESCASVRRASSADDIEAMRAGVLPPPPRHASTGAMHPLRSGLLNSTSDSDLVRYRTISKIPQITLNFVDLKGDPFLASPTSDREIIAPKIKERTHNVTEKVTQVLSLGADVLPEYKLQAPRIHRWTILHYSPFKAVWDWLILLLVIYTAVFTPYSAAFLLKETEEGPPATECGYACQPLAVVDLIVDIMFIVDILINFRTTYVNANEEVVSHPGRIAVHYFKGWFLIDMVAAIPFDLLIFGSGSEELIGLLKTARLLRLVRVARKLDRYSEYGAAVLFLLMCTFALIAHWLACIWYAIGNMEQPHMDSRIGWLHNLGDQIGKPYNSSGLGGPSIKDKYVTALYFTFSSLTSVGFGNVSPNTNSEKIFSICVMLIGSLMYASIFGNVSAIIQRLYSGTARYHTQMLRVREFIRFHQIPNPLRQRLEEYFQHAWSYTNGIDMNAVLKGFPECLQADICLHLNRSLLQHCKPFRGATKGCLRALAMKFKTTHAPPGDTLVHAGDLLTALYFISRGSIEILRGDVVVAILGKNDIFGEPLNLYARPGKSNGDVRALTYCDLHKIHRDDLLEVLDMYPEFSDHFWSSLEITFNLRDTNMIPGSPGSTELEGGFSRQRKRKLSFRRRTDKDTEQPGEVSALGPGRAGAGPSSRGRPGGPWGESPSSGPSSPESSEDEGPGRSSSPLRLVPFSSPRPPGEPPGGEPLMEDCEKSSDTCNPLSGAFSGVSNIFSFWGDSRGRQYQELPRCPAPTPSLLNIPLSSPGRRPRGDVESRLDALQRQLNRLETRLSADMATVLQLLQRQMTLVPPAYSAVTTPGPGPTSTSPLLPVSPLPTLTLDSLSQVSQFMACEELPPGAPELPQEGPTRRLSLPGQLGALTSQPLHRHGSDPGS

The test concerns the target human ether-à-go-go-related gene (hERG) potassium channel (human, UniProt Q12809). Put plainly: primary screen, population patch clamp on CHO cells stably expressing hERG.
As to `Cc1ccccc1Nc1ncnc(N)n1`, the “hERG current change (%, negative = inhibition) at 10uM” value was determined as 12%.
Consider `Cc1cc(C)nc(NS(=O)(=O)c2ccc(-n3cccc3)cc2)n1`, for which the “hERG current change (%, negative = inhibition) at 10uM” value is on record as 5.66%.
Take `COc1ccccc1OC(C)C(=O)Nc1nc(-c2ccc(S(=O)(=O)N3CCOCC3)cc2)cs1` (centres unmarked): the “hERG current change (%, negative = inhibition) at 10uM” value is given as 18.2%.
`CCOC(=O)C1CCCN(C(=O)c2sc3nc4n(c(=O)c3c2C)CCC4)C1` (centres unmarked): the “hERG current change (%, negative = inhibition) at 10uM” value is given as 2.39%.
The result for `CC(C)N1CCc2c(sc(NC(=O)c3ccc([N+](=O)[O-])o3)c2C(N)=O)C1.Cl` reads -4.92%; that for `Cc1ccc(C(C#N)c2ccc3c(C(F)(F)F)cc(C(F)(F)F)nc3n2)cc1` (centres unmarked), 11.1%.
With `CNC(=O)C1(C)C=CCN1C(=O)c1ccccc1` (centres unmarked), the “hERG current change (%, negative = inhibition) at 10uM” value came out at 16.3%.
As for `Cc1cc2oc(C(=O)N3CCN(CCc4ccccn4)CC3)c(C)c2cc1C`, the “hERG current change (%, negative = inhibition) at 10uM” value is on record as -21.2%.
The result for `NC(=O)C1CCN(C(=O)COc2ccc(S(=O)(=O)NCc3ccccc3)cc2Cl)CC1` reads 5.03%; that for `Cn1c(N)c(C(=O)COC(=O)c2ccco2)c(=O)n(C)c1=O`, 5.09%.
As for `Cc1ccc(/C([O-])=C(/C(=S)NCc2ccco2)[n+]2ccccc2)cc1`, the “hERG current change (%, negative = inhibition) at 10uM” value was -15.5%.
Consider `COC(=O)c1cc2c(C)nn(-c3ccccc3)c2s1`, for which the “hERG current change (%, negative = inhibition) at 10uM” value was 2.91%.
In the case of `O=C(C1CC1)N(CCc1ccccc1)Cc1nc2ccccc2c(=O)[nH]1`, the “hERG current change (%, negative = inhibition) at 10uM” value was -19.1%.
The result for `CCOc1ccccc1-n1nnnc1SCC(=O)OC` reads 19.1%; that for `COc1ccccc1C(=O)Nc1cccc(NC(C)=O)c1`, 10.9%; that for `Cc1ccc2c(c1)C1CN(C)CCC1N2C(=O)Nc1cccc(Cl)c1` (centres unmarked), -51.1%.
As to `Cl.OC1(c2ccccc2)CNCCc2ccccc21` (centres unmarked), the “hERG current change (%, negative = inhibition) at 10uM” value turned out to be 15.8%.
`c1ccc2c(c1)nc(NC1CCCCC1)c1nncn12`: the “hERG current change (%, negative = inhibition) at 10uM” value is recorded as -35.2%.
In the case of `COc1ccc(-c2cc(C)no2)cc1S(=O)(=O)N1CC(=O)Nc2ccccc21`, the “hERG current change (%, negative = inhibition) at 10uM” value worked out at 14.4%.
The result for `COc1ccccc1OCCOc1ccc(C(=O)c2ccccc2)cc1` reads 10.8%; that for `C[C@@H](O)CC(=O)O`, -5.45%.
As for `O=C(c1nc2ncccn2n1)N1CCN(c2ccc(F)cc2)CC1`, the “hERG current change (%, negative = inhibition) at 10uM” value is -23.4%.
`COc1ccc(Cn2nnnc2CN(Cc2cc3ccc(C)cc3[nH]c2=O)C2CCCC2)cc1`: the “hERG current change (%, negative = inhibition) at 10uM” value is -24.6%.
As to `COc1ccc(/C=C/C(=O)N(Cc2ccccc2)c2ccccn2)cc1OC`, the “hERG current change (%, negative = inhibition) at 10uM” value was -76.6%.
`COc1ccc(CN(CC(=O)NCC2CCCO2)C(=O)CCC(=O)Nc2cc(C)on2)cc1` (centres unmarked): the “hERG current change (%, negative = inhibition) at 10uM” value was found to be 0.303%.
As for `COc1ccccc1CNC(=O)CNC(=O)c1ccc(Br)o1`, the “hERG current change (%, negative = inhibition) at 10uM” value stood at 5.22%.
As to `CCC(=O)c1ccc(OCC(O)CN2CCN(C(c3ccccc3)c3ccccc3)CC2)cc1` (centres unmarked), the “hERG current change (%, negative = inhibition) at 10uM” value is -67.2%.
For `COc1ccc(CNC(=O)C(=O)NCC2OCCN2C(=O)c2ccc(OC)cc2)cc1` (centres unmarked), the “hERG current change (%, negative = inhibition) at 10uM” value is 1.53%.
For the compound `Cc1cc(C)c2ccc(=S)[nH]c2n1`, the “hERG current change (%, negative = inhibition) at 10uM” value is 17%.
For `CS(=O)(=O)N(CC(=O)NCCSCc1ccccc1)c1ccccc1`, the “hERG current change (%, negative = inhibition) at 10uM” value is given as 5.17%.
For `COc1ccc(NC(=O)NC(c2ccccc2)c2ccccc2)c(OC)c1`, the “hERG current change (%, negative = inhibition) at 10uM” value worked out at 16.2%.
As to `Cc1ccc(N2C(=O)c3sc4nnc(C)c(=O)n4c3C2=O)cc1`, the “hERG current change (%, negative = inhibition) at 10uM” value is -9.37%.
On to `COc1ccc(N2CCN(C(=O)C3CCN(C(=O)c4ccc([N+](=O)[O-])cc4)CC3)CC2)cc1`, for which the “hERG current change (%, negative = inhibition) at 10uM” value is on record as -69%.
For `COc1ccc(S(=O)(=O)Oc2ccc(C(=S)N3CCOCC3)cc2OC)cc1`, the “hERG current change (%, negative = inhibition) at 10uM” value is -0.365%.
Consider `Cc1ccc(C)c(N2CCN(C(=O)C3CCCN(S(=O)(=O)c4cnc[nH]4)C3)CC2)c1` (centres unmarked), for which the “hERG current change (%, negative = inhibition) at 10uM” value was -2.62%.
The result for `O=C(/C(C=Nc1cccc(C(F)(F)F)c1)=C(/O)c1ccco1)C(F)(F)F` reads -29.8%; that for `Cc1ccc(S(=O)(=O)N2CCN(C(=O)c3ccccc3)CC2)cc1`, -31%; that for `Cc1cccc(NC(=O)C2CCCN2C(=O)OCC(C)C)c1` (centres unmarked), -2.25%.
The result for `O=C(CSc1nnnn1-c1ccccc1)Nc1ccc(Cl)cn1` reads 2.66%; that for `CC(C)n1nnnc1SCC(=O)NCc1cccs1`, 12.6%.
The result for `Cc1cccc(C)c1Nc1nnc(SCC(=O)NCc2ccco2)s1` reads 8.86%; that for `C=CCN(C(=O)Cn1nc(C)n2c(cc3cc(C)ccc32)c1=O)c1ccccc1`, -36.5%.
As for `COc1ccc(CC(=O)N2CCc3cc(OC)c(OC)cc3C2C)c(OC)c1` (centres unmarked), the “hERG current change (%, negative = inhibition) at 10uM” value is given as -6.22%.
For the compound `CCCNC(=O)C1CN(S(=O)(=O)c2ccc(C)cc2)c2ccccc2O1` (centres unmarked), the “hERG current change (%, negative = inhibition) at 10uM” value is recorded as -5.47%.
`CCO/C(C)=N/n1c2nc3ccccc3nc2c2c(=O)n(Cc3ccccc3Cl)c(C)nc21`: the “hERG current change (%, negative = inhibition) at 10uM” value is -28.7%.
For the compound `CCN(C(=O)c1cc2c(C)nc3ccccc3c2o1)c1cc(Cl)ccc1OC`, the “hERG current change (%, negative = inhibition) at 10uM” value is reported as -9.19%.
Regarding `COC(=O)COc1nc(C)c2c(c1C#N)CC(C)(C)OC2`, the “hERG current change (%, negative = inhibition) at 10uM” value came to 3.5%.
In the case of `CC(C)c1ccc(S(=O)(=O)c2nnn3c2nc(NCC2CCCO2)c2ccccc23)cc1` (centres unmarked), the “hERG current change (%, negative = inhibition) at 10uM” value is -4.47%.
As for `COc1ccc(NC(=S)N(CCCN2CCCC2)Cc2ccco2)cc1`, the “hERG current change (%, negative = inhibition) at 10uM” value is reported as -39.4%.
Consider `O=[n+]1c2c(n([O-])c3cc(Br)ccc31)CCCC2`, for which the “hERG current change (%, negative = inhibition) at 10uM” value is reported as -27.2%.
Consider `CCN1CCN(C(CNS(=O)(=O)c2ccc(Br)cc2)c2cccnc2)CC1` (centres unmarked), for which the “hERG current change (%, negative = inhibition) at 10uM” value is on record as -65.8%.
On to `CCCCC(=O)N/N=C(\C)CC(=O)Nc1cc(Cl)ccc1OC`, for which the “hERG current change (%, negative = inhibition) at 10uM” value is -1.21%.
For the compound `CCCCNC(=O)CCn1c(=O)c2ccccc2n(Cc2ccccc2C)c1=O`, the “hERG current change (%, negative = inhibition) at 10uM” value turned out to be 0.168%.
Consider `O=C(NC1CCN(S(=O)(=O)c2cccc(F)c2)CC1)c1cccc(F)c1`, for which the “hERG current change (%, negative = inhibition) at 10uM” value amounted to 18.4%.
Consider `O=[N+]([O-])c1ccc(S(=O)(=O)NCC(c2ccco2)N2CCc3ccccc3C2)cc1` (centres unmarked), for which the “hERG current change (%, negative = inhibition) at 10uM” value is reported as -20.2%.
With `COC(=O)c1ccc(CSc2nnc(N)s2)o1` the figure was 4.89%.
